# Reference: the supplement of paper PMC8728848
# Some of the results follow.
# B1: Annexin-A1 (Mus musculus), P10107 (protein)
# chain: MAMVSEFLKQARFLENQEQEYVQAVKSYKGGPGSAVSPYPSFNVSSDVAALHKAIMVKGVDEATIIDILTKRTNAQRQQIKAAYLQENGKPLDEVLRKALTGHLEEVVLAMLKTPAQFDADELRGAMKGLGTDEDTLIEILTTRSNEQIREINRVYREELKRDLAKDITSDTSGDFRKALLALAKGDRCQDLSVNQDLADTDARALYEAGERRKGTDVNVFTTILTSRSFPHLRRVFQNYGKYSQHDMNKALDLELKGDIEKCLTTIVKCATSTPAFFAEKLYEAMKGAGTRHKALIRIMVSRSEIDMNEIKVFYQKKYGISLCQAILDETKGDYEKILVALCGGN
# Assays:
# Assay in all cases: glycan array binding signal (z-score within array); higher = stronger binding
# Details in all cases: glycan notation: IUPAC condensed, linker removed
# Fuc(a1-2)Gal = molecular target: Fuc(a1-2)Gal
# How it was run: (§1)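 From the Consortium for Functional Glycomics database, 3228 arrays were curated, keeping only those whose protein sequence was available. Binding is given as a within-array Z-score averaged across arrays sharing a protein sequence and across linkers. Negative Z-scores can be read as non-binding.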
# Fuc(a1-2)Gal(b1-3)GalNAc = molecular target: Fuc(a1-2)Gal(b1-3)GalNAc
# How it was run: as §1
# [1] = molecular target: Fuc(a1-2)Gal(b1-3)GalNAc(b1-3)Gal
# How it was run: as §1
# [2] = molecular target: Fuc(a1-2)Gal(b1-3)GalNAc(b1-3)Gal(a1-4)Gal(b1-4)Glc
# How it was run: as §1
# [3] = molecular target: Fuc(a1-2)Gal(b1-3)GalNAc(b1-3)Gal(b1-4)Glc
# How it was run: as §1
# [4] = molecular target: Fuc(a1-2)Gal(b1-3)GalNAc(b1-4)[Neu5Ac(a2-3)]Gal(b1-4)Glc
# How it was run: as §1
# [5] = molecular target: Fuc(a1-2)Gal(b1-3)[Fuc(a1-4)]GlcNAc
# How it was run: as §1
# Fuc(a1-2)Gal(b1-4)Glc = molecular target: Fuc(a1-2)Gal(b1-4)Glc
# How it was run: as §1
# Fuc(a1-2)Gal(b1-4)Glc6S = molecular target: Fuc(a1-2)Gal(b1-4)Glc6S
# How it was run: as §1
# Fuc(a1-2)Gal(b1-4)GlcNAc = molecular target: Fuc(a1-2)Gal(b1-4)GlcNAc
# How it was run: as §1
# [6] = molecular target: Fuc(a1-2)Gal(b1-4)GlcNAc(b1-3)Gal(b1-4)GlcNAc
# How it was run: as §1
# [7] = molecular target: Fuc(a1-2)Gal(b1-4)GlcNAc(b1-3)Gal(b1-4)GlcNAc(b1-3)Gal(b1-4)GlcNAc
# How it was run: as §1
# [8] = molecular target: Fuc(a1-2)Gal(b1-4)GlcNAc6S
# How it was run: as §1
# [9] = molecular target: Fuc(a1-2)Gal(b1-4)[Fuc(a1-3)]GalNAc(b1-3)Gal(b1-4)[Fuc(a1-3)]GlcNAc
# How it was run: as §1
# [10] = molecular target: Fuc(a1-2)Gal(b1-4)[Fuc(a1-3)]GalNAc(b1-3)Gal(b1-4)[Fuc(a1-3)]GlcNAc(b1-3)Gal(b1-4)[Fuc(a1-3)]GalNAc
# How it was run: as §1
# [11] = molecular target: Fuc(a1-2)Gal(b1-4)[Fuc(a1-3)]GlcNAc
# How it was run: as §1
# Fuc(a1-2)Gal6S(b1-4)Glc = molecular target: Fuc(a1-2)Gal6S(b1-4)Glc
# How it was run: as §1
# [12] = molecular target: Fuc(a1-2)Gal6S(b1-4)Glc6S
# How it was run: as §1
# [13] = molecular target: Fuc(a1-2)Gal6S(b1-4)GlcNAc
# How it was run: as §1
# Fuc(a1-2)GlcNAc = molecular target: Fuc(a1-2)GlcNAc
# How it was run: as §1
# Fuc(a1-2)[Gal(a1-3)]Gal = molecular target: Fuc(a1-2)[Gal(a1-3)]Gal
# How it was run: as §1
# [14] = molecular target: Fuc(a1-2)[Gal(a1-3)]Gal(b1-3)GlcNAc
# How it was run: as §1
# [15] = molecular target: Fuc(a1-2)[Gal(a1-3)]Gal(b1-4)Glc
# How it was run: as §1
# [16] = molecular target: Fuc(a1-2)[Gal(a1-3)]Gal(b1-4)GlcNAc
# How it was run: as §1
# [17] = molecular target: Fuc(a1-2)[Gal(a1-3)]Gal(b1-4)[Fuc(a1-3)]GlcNAc
# How it was run: as §1
# [18] = molecular target: Fuc(a1-2)[Gal(a1-4)]Gal(b1-4)GalNAc
# How it was run: as §1
# [19] = molecular target: Fuc(a1-2)[GalNAc(a1-3)]Gal
# How it was run: as §1
# [20] = molecular target: Fuc(a1-2)[GalNAc(a1-3)]Gal(b1-3)GlcNAc
# How it was run: as §1
# [21] = molecular target: Fuc(a1-2)[GalNAc(a1-3)]Gal(b1-4)Glc
# How it was run: as §1
# [22] = molecular target: Fuc(a1-2)[GalNAc(a1-3)]Gal(b1-4)GlcNAc
# How it was run: as §1
binder,measurement,setting,value
B1,glycan array binding signal (z-score),Fuc(a1-2)Gal,0.35
same,glycan array binding signal (z-score),Fuc(a1-2)Gal(b1-3)GalNAc,-0.51
same,glycan array binding signal (z-score),[1],0.204
same,glycan array binding signal (z-score),[2],-0.149
same,glycan array binding signal (z-score),[3],-0.585
same,glycan array binding signal (z-score),[4],-0.287
same,glycan array binding signal (z-score),[5],-0.686
same,glycan array binding signal (z-score),Fuc(a1-2)Gal(b1-4)Glc,-0.012
same,glycan array binding signal (z-score),Fuc(a1-2)Gal(b1-4)Glc6S,1.79
same,glycan array binding signal (z-score),Fuc(a1-2)Gal(b1-4)GlcNAc,-0.292
same,glycan array binding signal (z-score),[6],-0.021
same,glycan array binding signal (z-score),[7],-0.656
same,glycan array binding signal (z-score),[8],0.24
same,glycan array binding signal (z-score),[9],0.2
same,glycan array binding signal (z-score),[10],-0.308
same,glycan array binding signal (z-score),[11],-0.239
same,glycan array binding signal (z-score),Fuc(a1-2)Gal6S(b1-4)Glc,-0.374
same,glycan array binding signal (z-score),[12],1.58
same,glycan array binding signal (z-score),[13],-0.152
same,glycan array binding signal (z-score),Fuc(a1-2)GlcNAc,-0.535
same,glycan array binding signal (z-score),Fuc(a1-2)[Gal(a1-3)]Gal,-0.42
same,glycan array binding signal (z-score),[14],-0.619
same,glycan array binding signal (z-score),[15],0.19
same,glycan array binding signal (z-score),[16],-0.684
same,glycan array binding signal (z-score),[17],-0.018
same,glycan array binding signal (z-score),[18],-0.522
same,glycan array binding signal (z-score),[19],-0.448
same,glycan array binding signal (z-score),[20],-0.149
same,glycan array binding signal (z-score),[21],0.169
same,glycan array binding signal (z-score),[22],-0.422
